Data as given in PubChem BioAssay AID686978 (National Center for Advancing Translational Sciences (NCATS), 2013).
The whole screen tested about 420,000 compounds, of which about 64,000 (15%) were called active. Inconclusive results, whose numbers are uncertain, are shown with a selection of clear calls. Calls follow the shape of the dose curve; as a rule, active = well fitted inhibition curve with a large enough effect; inconclusive = small, poorly fitted or top-dose-only effect; inactive = flat fitted curve, though single readings scatter. Potencies of inconclusive entries are left out as doubtful fits.

Assay: qHTS for Inhibitors of human tyrosyl-DNA phosphodiesterase 1 (TDP1): qHTS in cells in absence of CPT; also: nearly all actives have a fitted effect of over 55% in size
Conditions: DT40 Tdp1-/- hTDP1 cells, no CPT, ATP luminescence, 48 h; activity change, negative = growth inhibition: at 46.2 µM (top of the series)
Procedure, shortened: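 Readout: luminescence from CellTiter-Glo after 30 min in the dark at RT. Cells: DT40 Tdp1-/- with stable hTDP1, 400/well. Exposure: compounds alone, ≥48 hr, 37 °C.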
% is scaled to controls: 0 for no effect and ±100 for the full control effect; potency is read from the fitted curve at half-maximal effect; tags tell the direction and shape of the fitted curve.

| SMILES | Potency | activity change, negative = growth inhibition |
| --- | --- | --- |
| COc1ccccc1C(=O)Nc1ccc2oc(-c3ccc(F)cc3)nc2c1 | inconclusive [inhibitor, partial curve, poor fit] |  |
| CC(=O)c1ccc(N2CCN(C(=O)C(=O)c3cn(CC(=O)N4CCCCCC4)c4ccccc34)CC2)cc1 | active: 13 µM |  |
| O=C(/C=C/c1ccc2c(c1)OCCO2)c1ccccc1 | active: 16.4 µM |  |
| Nc1cc(=O)n(Cc2ccco2)c(=S)[nH]1 |  | inactive: -9.51% |
| CS(=O)(=O)N(CC(=O)N1CCN(c2ccccc2)CC1)C1CCCCC1 | inconclusive [inhibitor, partial curve] |  |
| O=c1[nH]c(C2CCN(S(=O)(=O)/C=C/c3ccccc3)CC2)nc2c1nnn2Cc1ccc(F)cc1 | active: 18.4 µM |  |
| CCCCN=Cc1sc2ccc(OCC)cc2c1O | inconclusive [inhibitor, single point] |  |
| NC(=O)c1c(NC(=O)COC(=O)c2ccc(O)c(Cl)c2)sc2c1CCCC2 | inconclusive [inhibitor, single point] |  |
| CCOc1ccc(NC(=O)COc2ccc(C(=O)NCc3cccnc3)cc2OC)cc1 | inconclusive [inhibitor, single point] |  |
| CCc1cc(=O)oc2cc(OC(C)C(=O)NCC(O)c3ccccc3)c(Cl)cc12 (centres undefined) | inconclusive [inhibitor, single point] |  |
| O=C(c1cnn2c1NC(c1ccc(Br)cc1)CC2C(F)(F)F)N1CCN2CCCC2C1 (centres undefined) | inconclusive [inhibitor, partial curve, poor fit] |  |
| CC1CCc2nc(NC(=O)c3cc(C(C)(C)C)nn3C)sc2C1 (centres undefined) |  | inactive: -7.69% |
| Cc1ccc(S(=O)(=O)Oc2ccccc2-c2ccccc2)cc1 | active: 13 µM |  |
| O=C(c1ccc2c(c1)[nH]c(=S)n1c3ccccc3nc21)N1CCN(c2cccc(Cl)c2)CC1 | active: 18.4 µM |  |
| Cc1ccc(CNCC(=O)Nc2ccc(C)cc2Br)cc1 | inconclusive [inhibitor, single point] |  |
| O=S1(=O)CCOC[C@H](Cc2ccccc2)N1Cc1cccc(F)c1 | inconclusive [inhibitor, full curve, poor fit] |  |
| Cc1sc(N/N=C/C=C/c2ccccc2)nc1-c1ccccc1 | inconclusive [inhibitor, single point] |  |
| Cc1ccc(C(=O)NC(C)c2ccc(C)c(C)c2)s1 (centres undefined) | inconclusive [inhibitor, single point] |  |
| O=C(CSc1ccc2ccccc2c1Br)Nc1cccc(S(=O)(=O)NC2=NCCCCC2)c1 | inconclusive [inhibitor, single point] |  |
| Cc1ccc(NS(=O)(=O)c2sc3ccc(Cl)cc3c2C)cc1 | inconclusive [inhibitor, single point] |  |
| CC(=O)OCC=C1CCC2C3CCC4=CC(=O)CCC4(C)C3C(O)CC12C (centres undefined) | active: 11.6 µM |  |
| CN(C)CCCNC(=O)/C(=C\C=C\c1ccccc1)NC(=O)c1ccc([N+](=O)[O-])cc1 | inconclusive [inhibitor, single point] |  |

| SMILES | Potency | activity change, negative = growth inhibition |
| --- | --- | --- |
| COc1cccc(CN(C)C(=O)C2CCN(S(=O)(=O)c3cccs3)CC2)c1OC | inconclusive [inhibitor, single point] |  |
| O=S(=O)(N/N=C/c1cn(Cc2ccccc2)c2ccccc12)c1ccccc1 |  | inactive: -2.5% |
| Cc1cc(-c2n[nH]c(=S)n2/N=C/c2ccc(Br)s2)n[nH]1 | inconclusive [inhibitor, single point] |  |
| Cc1ccc(-n2nc3c(N4CCCC(C(=O)NCc5ccccc5C)C4)nnc(C)c3c2C)cc1 (centres undefined) | active: 14.6 µM |  |
| c1csc(CNc2ncncc2-c2ccoc2)c1 | inconclusive [inhibitor, single point] |  |
| COc1ccc2nc(N3CCCC(C(=O)NCCCN4CCN(C)CC4)C3)sc2c1 (centres undefined) |  | inactive: -0.425% |
| O=C(c1ccc(=O)[nH]c1)N1CCCc2ccccc21 |  | inactive: 10.1% |
| CCOC(=O)c1c(NC(=O)COC(=O)c2ccc([N+](=O)[O-])cc2)sc(C(=O)N(C)C)c1C |  | inactive: -2.79% |
| Cc1cccc(CN2Cc3cccc4c3[C@H](C=CC4)CC2=S)c1 | inconclusive [inhibitor, single point] |  |
| Cc1nn(CC(=O)N2CCc3ccccc3C2)c(C)c1Cl |  | inactive: -20.4% |
| CC(C)Oc1ccc(C(=O)NCCNC(=O)c2ccco2)cc1 | inconclusive [inhibitor, partial curve] |  |
| Cn1c(=O)n(C)c2cc(CNCc3ccccc3Cl)ccc21 | inconclusive [inhibitor, single point] |  |
| CN(C)c1ccc(N/C=C/C(=O)C(C)(C)C)cc1 | inconclusive [inhibitor, single point] |  |
| Cc1cc(C)cc(NC(=O)c2ccc(S(=O)(=O)C(F)F)cc2)c1 | inconclusive [inhibitor, single point] |  |
| Cc1ccc(Cn2c(C3CCCN3c3nc(C)cs3)nc3cc(C(=O)NCCCO)ccc32)cc1 (centres undefined) |  | inactive: 2.17% |
| CCc1nc2ccc(C(=O)Nc3cccc(OCC(=O)N(C)C)c3)cn2c1N(C=O)Cc1ccc(OC)cc1 | inconclusive [inhibitor, single point] |  |
| Cc1ccc(N(Cc2ccc([N+](=O)[O-])cc2)C(=O)c2ccco2)cc1 | inconclusive [inhibitor, partial curve, poor fit] |  |
| COc1cccc(NC(=O)CN(C)C(=O)C(Sc2ccccc2)c2ccccc2)c1 (centres undefined) | inconclusive [inhibitor, single point] |  |
| CC(C)=CCc1cc([C@@H]2CC(=O)c3ccc(O)c(CC=C(C)C)c3O2)ccc1O | inconclusive [inhibitor, single point] |  |
| COc1cccc(C(=O)NCc2cn3cccc(C)c3n2)c1 |  | inactive: -15.1% |
| O=C(COC(=O)Cn1cnc2ccccc21)Nc1cc(S(=O)(=O)N2CCOCC2)ccc1Cl |  | inactive: -14.3% |
| CCCSc1oc(-c2ccco2)nc1S(=O)(=O)c1ccc(C)cc1 | inconclusive [inhibitor, single point] |  |
